# Measured values taken from the supplement of paper PMC8728848.
# Some of the results follow.
# Assays:
# Assay in all cases: glycan array binding signal (z-score within array); higher = stronger binding
# Conditions in all cases: glycan notation: IUPAC condensed, linker removed
# [1] = biological target: Neu5Ac(a2-3)Gal(b1-4)GlcNAc(b1-2)[Neu5Ac(a2-3)Gal(b1-4)GlcNAc(b1-4)]Man(a1-3)[GlcNAc(b1-4)][Neu5Ac(a2-3)Gal(b1-4)GlcNAc(b1-2)[Neu5Ac(a2-3)Gal(b1-4)GlcNAc(b1-6)]Man(a1-6)]Man(b1-4)GlcNAc(b1-4)GlcNAc
# In short: (§1)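 The binding signal is a Z-score computed within each array. Data were drawn from 3228 arrays in the Consortium for Functional Glycomics database, restricted to those with a known protein sequence. Scores were averaged over arrays of the same protein sequence at different concentrations or buffers, and over linkers, and negative values can be taken as non-binding.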
# [2] = biological target: Neu5Ac(a2-3)Gal(b1-4)GlcNAc(b1-2)[Neu5Ac(a2-3)Gal(b1-4)GlcNAc(b1-4)]Man(a1-3)[GlcNAc(b1-4)][Neu5Ac(a2-3)Gal(b1-4)GlcNAc(b1-4)Man(a1-6)]Man(b1-4)GlcNAc(b1-4)GlcNAc
# In short: as §1
# [3] = biological target: Neu5Ac(a2-3)Gal(b1-4)GlcNAc(b1-2)[Neu5Ac(a2-3)Gal(b1-4)GlcNAc(b1-6)]Man(a1-6)[Neu5Ac(a2-3)Gal(b1-4)GlcNAc(b1-2)Man(a1-3)][GlcNAc(b1-4)]Man(b1-4)GlcNAc(b1-4)GlcNAc
# In short: as §1
# [4] = biological target: Neu5Ac(a2-3)Gal(b1-4)GlcNAc(b1-3)Gal
# In short: as §1
# [5] = biological target: Neu5Ac(a2-3)Gal(b1-4)GlcNAc(b1-3)Gal(b1-3)GlcNAc
# In short: as §1
# [6] = biological target: Neu5Ac(a2-3)Gal(b1-4)GlcNAc(b1-3)Gal(b1-4)GlcNAc
# In short: as §1
# [7] = biological target: Neu5Ac(a2-3)Gal(b1-4)GlcNAc(b1-3)Gal(b1-4)GlcNAc(b1-2)Man(a1-3)[Neu5Ac(a2-3)Gal(b1-4)GlcNAc(b1-3)Gal(b1-4)GlcNAc(b1-2)Man(a1-6)]Man(b1-4)GlcNAc(b1-4)GlcNAc
# In short: as §1
# [8] = biological target: Neu5Ac(a2-3)Gal(b1-4)GlcNAc(b1-3)Gal(b1-4)GlcNAc(b1-3)Gal(b1-4)GlcNAc
# In short: as §1
# [9] = biological target: Neu5Ac(a2-3)Gal(b1-4)GlcNAc(b1-3)Gal(b1-4)GlcNAc(b1-3)Gal(b1-4)GlcNAc(b1-2)Man(a1-3)[Neu5Ac(a2-3)Gal(b1-4)GlcNAc(b1-3)Gal(b1-4)GlcNAc(b1-3)Gal(b1-4)GlcNAc(b1-2)Man(a1-6)]GalNAc
# In short: as §1
# [10] = biological target: Neu5Ac(a2-3)Gal(b1-4)GlcNAc(b1-3)Gal(b1-4)GlcNAc(b1-3)GalNAc
# In short: as §1
# [11] = biological target: Neu5Ac(a2-3)Gal(b1-4)GlcNAc(b1-3)Gal(b1-4)GlcNAc(b1-3)[Neu5Ac(a2-3)Gal(b1-4)GlcNAc(b1-3)Gal(b1-4)GlcNAc(b1-6)]GalNAc
# In short: as §1
# [12] = biological target: Neu5Ac(a2-3)Gal(b1-4)GlcNAc(b1-3)Gal(b1-4)GlcNAc(b1-6)[Gal(b1-3)]GalNAc
# In short: as §1
# [13] = biological target: Neu5Ac(a2-3)Gal(b1-4)GlcNAc(b1-3)Gal(b1-4)[Fuc(a1-3)]GlcNAc
# In short: as §1
# [14] = biological target: Neu5Ac(a2-3)Gal(b1-4)GlcNAc(b1-3)GalNAc
# In short: as §1
# [15] = biological target: Neu5Ac(a2-3)Gal(b1-4)GlcNAc(b1-3)[Neu5Ac(a2-3)Gal(b1-4)GlcNAc(b1-6)]GalNAc
# In short: as §1
# [16] = biological target: Neu5Ac(a2-3)Gal(b1-4)GlcNAc(b1-6)GalNAc
# In short: as §1
# [17] = biological target: Neu5Ac(a2-3)Gal(b1-4)GlcNAc(b1-6)[Gal(b1-3)]GalNAc
# In short: as §1
# [18] = biological target: Neu5Ac(a2-3)Gal(b1-4)GlcNAc(b1-6)[Neu5Ac(a2-3)Gal(b1-3)]GalNAc
# In short: as §1
# [19] = biological target: Neu5Ac(a2-3)Gal(b1-4)GlcNAc6S
# In short: as §1
# [20] = biological target: Neu5Ac(a2-3)Gal(b1-4)[Fuc(a1-3)]GlcNAc
# In short: as §1
# [21] = biological target: Neu5Ac(a2-3)Gal(b1-4)[Fuc(a1-3)]GlcNAc(b1-2)Man
# In short: as §1
# [22] = biological target: Neu5Ac(a2-3)Gal(b1-4)[Fuc(a1-3)]GlcNAc(b1-3)Gal
# In short: as §1
# [23] = biological target: Neu5Ac(a2-3)Gal(b1-4)[Fuc(a1-3)]GlcNAc(b1-3)Gal(b1-4)GlcNAc
# In short: as §1
# [24] = biological target: Neu5Ac(a2-3)Gal(b1-4)[Fuc(a1-3)]GlcNAc(b1-3)Gal(b1-4)[Fuc(a1-3)]GlcNAc(b1-3)Gal(b1-4)[Fuc(a1-3)]GlcNAc
# In short: as §1
# [25] = biological target: Neu5Ac(a2-3)Gal(b1-4)[Fuc(a1-3)]GlcNAc(b1-3)GalNAc
# In short: as §1
# [26] = biological target: Neu5Ac(a2-3)Gal(b1-4)[Fuc(a1-3)]GlcNAc(b1-6)[Gal(b1-3)]GalNAc
# In short: as §1
# [27] = biological target: Neu5Ac(a2-3)Gal(b1-4)[Fuc(a1-3)]GlcNAc(b1-6)[Neu5Ac(a2-3)Gal(b1-3)]GalNAc
# In short: as §1
# [28] = biological target: Neu5Ac(a2-3)Gal(b1-4)[Fuc(a1-3)]GlcNAc6S
# In short: as §1
# [29] = biological target: Neu5Ac(a2-3)Gal6S(b1-4)GlcNAc
# In short: as §1
# [30] = biological target: Neu5Ac(a2-3)Gal6S(b1-4)[Fuc(a1-3)]GlcNAc
# In short: as §1
# [31] = biological target: Neu5Ac(a2-3)GalNAc
# In short: as §1
# [32] = biological target: Neu5Ac(a2-3)GalNAc(b1-4)GlcNAc
# In short: as §1
# [33] = biological target: Neu5Ac(a2-3)[GalNAc(b1-4)]Gal(b1-4)Glc
# In short: as §1
# [34] = biological target: Neu5Ac(a2-3)[GalNAc(b1-4)]Gal(b1-4)GlcNAc
# In short: as §1
# [35] = biological target: Neu5Ac(a2-3)[GalNAc(b1-4)]Gal(b1-4)GlcNAc(b1-3)GalNAc
# In short: as §1
# [36] = biological target: Neu5Ac(a2-3)[Neu5Ac(a2-6)]GalNAc
# In short: as §1
# [37] = biological target: Neu5Ac(a2-6)Gal
# In short: as §1
# [38] = biological target: Neu5Ac(a2-6)Gal(b1-3)GlcNAc(b1-3)[Gal(b1-4)GlcNAc(b1-6)]Gal(b1-4)Glc
# In short: as §1
# [39] = biological target: Neu5Ac(a2-6)Gal(b1-4)Glc
# In short: as §1
# [40] = biological target: Neu5Ac(a2-6)Gal(b1-4)GlcNAc
# In short: as §1
# [41] = biological target: Neu5Ac(a2-6)Gal(b1-4)GlcNAc(b1-2)Man
# In short: as §1
# [42] = biological target: Neu5Ac(a2-6)Gal(b1-4)GlcNAc(b1-2)Man(a1-3)Man(b1-4)GlcNAc(b1-4)GlcNAc
# In short: as §1
# [43] = biological target: Neu5Ac(a2-6)Gal(b1-4)GlcNAc(b1-2)Man(a1-3)[Gal(b1-4)GlcNAc(b1-2)Man(a1-6)]Man(b1-4)GlcNAc(b1-4)GlcNAc
# In short: as §1
# [44] = biological target: Neu5Ac(a2-6)Gal(b1-4)GlcNAc(b1-2)Man(a1-3)[GlcNAc(b1-2)Man(a1-6)]Man(b1-4)GlcNAc(b1-4)GlcNAc
# In short: as §1
# [45] = biological target: Neu5Ac(a2-6)Gal(b1-4)GlcNAc(b1-2)Man(a1-3)[GlcNAc(b1-4)][Neu5Ac(a2-6)Gal(b1-4)GlcNAc(b1-2)Man(a1-6)]Man(b1-4)GlcNAc(b1-4)GlcNAc
# In short: as §1
binder,measurement,setting,value
Epa10 (protein) MNEKIFRYLTLLFLFELARSLPVEDKLNIKKVFEKRAVDFTPFAHYPRPEGCSSPPNSVSVGLHMNLYNYPYLYVKPSTKGMFTNDTNSDADGETDGDSAGGIEGRAGQCWNPEYQDPNFPRFGYKQYGEFGASDNVNGDISWDHNEFTEGCKPVLAALPPGYNYPDEITFSNFTMVLSGYFKPKTSGVYKFELKADDFILFNFGAKNAFECCNREESIDNFGPYVAYAMWPNQADQELEVYLFEDSYYPLRLFYNNRDYHSKFKIGFYPPGQTTITFDFDGYLFMLDDTGNECRDSIRYRTVCDDKVVDDTTYSTRYSTSMVPGGGSDVITIYYIRMKCEEEDCLGQWDPINNVCYSPDDCADDGGYWNGQMCDQSCKLEGGIVNPDTGDCDKSCIESGGFLDENGNCDTTCRDDGGMLVEGQCDYQCKEAGGILVGDHCDTTCVDSGGKLNEDGTCDHSCRDQGGQLDENGECDTSCKDSGGMLIEGECDTSCKDEGGQLDDNNECINHCKDQGGIIDENGNCDTSCKDSGGKLDESGACDTSCRDDGGIIDENGNCNTTCRDDGGIIVGDHCDTSCRDAGGILIEDHCDTTCRDSGGKLNEDGTCDHSCRDQGGQLDENGKCDYSCKNGGGKLDEDGNCDMSCKENGGKLDENGDCDLSCKEDGGKLDGNGDCDYSCKEEGGVIDESGNCNTTCKDSGGQIIDGECNYGCIEVGGVVIDGECDTSCIDSGGILDGDGNCDRSCIESGGVLEDGACNTTCRDSGGQLNVDGTCDTSCRDDGGMLVEGQCDYQCKEAGGILEDGECVFPPTSSSTSETSSTTDQSSLQSDDSSMESSSTPMDSSTIESSSSEIITSESESESVPIASSSSEVMTSESESESIPILTSSSEIPIASSSSEIPVASSSSEIIIPESESESVPVASSSSEIPIASSSSEIPVASSSSEIPVASSSSEIIIPESESESIPIESTSSEAVSSRSESDSSYPTPTPTTTTITTWPNPIQPTTSNSSPIVSSSTETPGIAESSSRISDLESSRRTSILGDDRTRTRTTITSTITEDGQIITITTTVTGFVPEPTGETEGNGSDDENPENPIENNTDENEFLDPEFTDDIPDDPAGPEDNGNGPVNPEQGNDNDPVNLEDSGNNGAVNPEQAPVNDEDNGGNDPVNPEQDNNNGPANPGQDSTNGSGNSDQIDNNPPTPEENAGDGNSNGNDPADPSRRTSILGDERTRASPGGTSQPTGANGNVNGNSPGANVNGGGTGNSNNNNNNNNNNNNGNAPNGGDGSNGDANQGPSRRTSLLGDERTRAGQAAPTGGSSPDNGIAGDTSNNGGAIVSQQVDDGGAGSPRRTSILGDVRSRTTLNGEVLNFEGSGVRRAVAGNLALPLMMVGLVFNL,glycan array binding signal (z-score),[1],-0.221
same,glycan array binding signal (z-score),[2],-0.16
same,glycan array binding signal (z-score),[3],-0.298
same,glycan array binding signal (z-score),[4],-0.172
same,glycan array binding signal (z-score),[5],-0.284
same,glycan array binding signal (z-score),[6],-0.259
same,glycan array binding signal (z-score),[7],-0.037
same,glycan array binding signal (z-score),[8],-0.197
same,glycan array binding signal (z-score),[9],-0.156
same,glycan array binding signal (z-score),[10],-0.244
same,glycan array binding signal (z-score),[11],-0.234
same,glycan array binding signal (z-score),[12],0.519
same,glycan array binding signal (z-score),[13],-0.305
same,glycan array binding signal (z-score),[14],-0.204
same,glycan array binding signal (z-score),[15],-0.282
same,glycan array binding signal (z-score),[16],-0.223
same,glycan array binding signal (z-score),[17],0.907
same,glycan array binding signal (z-score),[18],-0.259
same,glycan array binding signal (z-score),[19],-0.221
same,glycan array binding signal (z-score),[20],-0.278
same,glycan array binding signal (z-score),[21],-0.151
same,glycan array binding signal (z-score),[22],-0.302
same,glycan array binding signal (z-score),[23],-0.147
same,glycan array binding signal (z-score),[24],-0.17
same,glycan array binding signal (z-score),[25],0.026
same,glycan array binding signal (z-score),[26],-0.023
same,glycan array binding signal (z-score),[27],-0.149
same,glycan array binding signal (z-score),[28],-0.185
same,glycan array binding signal (z-score),[29],-0.25
same,glycan array binding signal (z-score),[30],-0.301
same,glycan array binding signal (z-score),[31],-0.27
same,glycan array binding signal (z-score),[32],-0.195
same,glycan array binding signal (z-score),[33],-0.243
same,glycan array binding signal (z-score),[34],-0.226
same,glycan array binding signal (z-score),[35],-0.25
same,glycan array binding signal (z-score),[36],-0.226
same,glycan array binding signal (z-score),[37],-0.249
same,glycan array binding signal (z-score),[38],-0.285
same,glycan array binding signal (z-score),[39],-0.264
same,glycan array binding signal (z-score),[40],-0.235
same,glycan array binding signal (z-score),[41],-0.218
same,glycan array binding signal (z-score),[42],-0.174
same,glycan array binding signal (z-score),[43],-0.179
same,glycan array binding signal (z-score),[44],-0.287
same,glycan array binding signal (z-score),[45],-0.196
